Data from PubChem BioAssay AID602332 (National Center for Advancing Translational Sciences (NCATS), 2012).
The campaign covered roughly 420,000 compounds. About 75 (0.02%) were called active. This list was built around the results that the source calls inconclusive (neither active nor inactive); the mix of calls is not that of the screen. Calls come from the whole dose curve; as a rule, active = well fitted activation curve with a large enough effect; inconclusive = small, poorly fitted or top-dose-only effect; inactive = no such curve, though single readings can be large or run the other way. A potency beside an inconclusive call is a rough fit, not a confirmed value.

Assay: qHTS for Inducers of the Endoplasmic Reticulum Stress Response (ERSR) in Human Glioma: qHTS; note: nearly all actives have a fitted effect of over 35% in size; for activation: % of control where 0% means no effect
Conditions: U87-MG GRP78 promoter luciferase reporter, 16 h; activation: hits give high values
In short: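 ERSR induction read as luciferase luminescence (Bright-Glo, 10 min at room temperature) in stably transfected human U87-MG glioma cells exposed to compounds for 16 h, using GRP78 as sensor.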
Potency is the fitted concentration of half-maximal effect; tags give direction and shape of the fitted curve.

SMILES	activation	Potency
COc1ccc(CNC(=O)C(c2ccco2)N(C(=O)Cc2cccs2)c2cccnc2)cc1 (stereo not drawn)	inactive: -7.19%	–
O=C(O)CC/C(=C/c1cccc(NC(=O)c2ccccc2Cl)c1)c1nc2ccccc2s1	–	inconclusive: 15.8 µM [activator, full curve, poor fit]
CCOC(=O)NC1(NCc2ccccc2)Oc2ccccc2O1	–	inconclusive: 10 µM [activator, partial curve, poor fit]
COc1cc2c(cc1OC)CN(c1ccc(C(F)(F)F)cn1)CC2	–	inconclusive: 50.1 µM [activator, single point]
Cc1cc(C(=O)NCc2nnc3n2CCN(Cc2ccc4c(c2)Cc2ccccc2-4)CC3)c(C)o1	inactive: -4.28%	–
COc1ccc(-c2cc(NC(C)=O)c3ncc(-c4ccc(OC)c(OC)c4)n3c2)c(OC)c1	–	inconclusive: 50.1 µM [activator, single point]
CCc1ccc(NC(=O)Cc2c(C(=O)O)n(C)c3ccccc23)cc1	–	inconclusive: 28.2 µM [activator, single point]
O=C(CCl)NNC(=O)c1c(O)c2ccccc2[nH]c1=O	–	inconclusive: 44.7 µM [activator, partial curve, poor fit]
CC(=O)c1ccc(F)c(-c2cc(C)cc3c2OC(CNC(=O)c2cnc4ccccn4c2=O)C3)c1 (stereo not drawn)	inactive: -0.311%	–
O=C(OCC(=O)N1CCN(c2ccccc2)CC1)c1ccc2ccccc2n1	inactive: -0.52%	–
Cc1occc1C(=O)Nc1c(Cl)cccc1Cl	–	inconclusive: 11.2 µM [activator, single point]
N#C/C(=C(/O)COC(=O)c1ccc2c(c1)OCCO2)c1nc2ccccc2[nH]1	–	inconclusive: 39.8 µM [activator, partial curve, poor fit]
O=[N+]([O-])c1ccc(N=Nc2c(O)[nH]c3ccc(F)cc23)cc1	–	inconclusive: 70.8 µM [activator, single point]
O=C(NN(c1ccccc1)c1ccccc1)c1ccc([N+](=O)[O-])o1	–	inconclusive: 28.2 µM [activator, single point]
COc1ccc(C(=O)Oc2c(Sc3ccccc3)c(C)nn2-c2ccccc2)cc1OC	–	inconclusive: 28.2 µM [activator, single point]
CC1=C(C(=O)Nc2cc(C)ccc2C)C2(CCCCCC2)OC1=O	inactive: -3.07%	–
CSC1=C(C#N)C(c2ccc3c(c2)OCO3)C2=C(CCCC2=O)N1 (stereo not drawn)	inactive: -0.869%	–
O=C(NCc1ccco1)c1csc2c1CCCCC2	inactive: 0.516%	–
